# Where a name gives a salt, the structure may show the parent alone. Some of the results follow. Cut-off read from the data, not from the text of the source: active = -2 or less and inactive = the rest. Most values come without repeats; read them as rough.
# Tested on: hPSC-derived cortical neurons (WA09)
# Assay: nuclei number (viability) z-score; higher = more surviving cells
# Conditions: 5 µM; treatment: days 7-14 after plating, readout day 21
# 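Note: nuclei counted from DAPI counterstain by automated high-content image analysis, four fields per well at ×20 in 384-well plates, with sequential b-score then z-score normalization.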
row,SMILES,nuclei number (z-score)
1,Nc1ccc(C(=O)Nc2cccc(-c3nc(N4CCOCC4)c4oc5ncccc5c4n3)c2)cn1,active: -2.08
2,O=c1ccc2ccccc2o1 [Coumarin],inactive: 0.112
3,Nc1nc(=S)c2ncn([C@H]3C[C@H](O)[C@@H](CO)O3)c2[nH]1,inactive: 0.435
4,CCOc1ccc(C[C@H]2NC(=O)CCSSC[C@@H](C(=O)N3CCC[C@H]3C(=O)N[C@@H](CCCN)C(=O)NCC(N)=O)NC(=O)[C@H](CC(N)=O)NC(=O)[C@H]([C@@H](C)O)NC(=O)[C@H]([C@@H](C)CC)NC2=O)cc1 [Atosiban Acetate],inactive: -0.0774
5,Cc1nc(-c2cccnc2)sc1C(=O)Nc1ccccc1-c1cn2c(CN3CCOCC3)csc2n1,inactive: -0.312
6,COc1ccnc(C[S+]([O-])c2nc3cc(OC(F)F)ccc3[nH]2)c1OC (centres undefined) [Pantoprazole sodium],inactive: 0.528
7,Cc1cc(C)c(S(=O)(=O)n2cc(C)cc2C)c(C)c1,inactive: -0.954
8,Cc1[nH]c2ccccc2c1CCNCc1ccc(/C=C/C(=O)NO)cc1 [Panobinostat (LBH589)],active: -2.48
9,O=c1[nH]c(=O)c2ccccc2o1 [Carsalam],inactive: 0.474
10,Nc1ccn([C@@H]2O[C@H](CO)[C@@H](O)[C@@H]2O)c(=O)n1 [Cytarabine],active: -3.65
11,Cn1cc(-c2ccncc2)c(-c2ccc(OCc3ccc4ccccc4n3)cc2)n1,inactive: 1.23
12,O=C(O)[C@H]1O[C@@H](Oc2cc3oc(-c4ccccc4)cc(=O)c3c(O)c2O)[C@H](O)[C@@H](O)[C@@H]1O [Baicalin],inactive: -0.203
13,Nc1ccc(S(=O)(=O)Nc2ccccn2)cc1 [Sulfapyridine],inactive: 0.216
14,C=CC(=O)Nc1ccc(CN2C(=O)N(c3cc(OC)cc(OC)c3)Cc3cnc(Nc4ccc(N5CCN(C)CC5)cc4)nc32)cc1,active: -5.38
15,c1cncc(CN2CCC(n3ncc4c(N5CCOCC5)nc(-c5ccc6[nH]ccc6c5)nc43)CC2)c1,active: -3.57
16,COC1CCN(C(=O)c2cc(Cc3n[nH]c(=O)c4ccccc34)ccc2F)CC1,inactive: 0.582
17,O=C(O)C1(C(=O)O)CCC1.[NH2-].[NH2-].[Pt+2] [Carboplatin],inactive: 0.222
18,O=c1c(O)c(-c2ccc(O)c(O)c2)oc2cc(O)cc(O)c12 [Quercetin],inactive: 0.178
19,O=c1c(O)c(-c2ccc(O)c(O)c2)oc2cc(O)cc(O)c12 [Quercetin Dihydrate],inactive: 0.0993
20,COc1ccc(C2=N[C@H](c3ccc(Cl)cc3)[C@H](c3ccc(Cl)cc3)N2C(=O)N2CCNC(=O)C2)c(OC(C)C)c1 [Nutlin-3b],inactive: 0.527
21,Cc1cnc(C(=O)O)c[n+]1[O-] [Acipimox],inactive: 0.393
22,O=C(c1cncc(Br)c1)N1CCC(N2CCCC2)CC1,inactive: 0.654

row,SMILES,nuclei number (z-score)
1,O=C(Nc1ccc([N+](=O)[O-])cc1O)Nc1ccccc1Br,active: -2.51
2,O=C(O)c1cc(I)ccc1NC(=O)[C@H](Cc1ccccc1)NCc1ccccc1,inactive: -0.988
3,CCN1CCN(Cc2ccc(Nc3ncc(F)c(-c4cc(F)c5nc(C)n(C(C)C)c5c4)n3)nc2)CC1,active: -4.16
4,COCCc1ccc(OCC(O)CNC(C)C)cc1 (centres undefined) [Metoprolol Tartrate],inactive: 1.01
5,Nc1nc2[nH]cc(CCc3ccc(C(=O)N[C@@H](CCC(=O)O)C(=O)O)cc3)c2c(=O)[nH]1 [Pemetrexed Disodium Hydrate],inactive: -0.228
6,Nc1nc2[nH]cc(CCc3ccc(C(=O)N[C@@H](CCC(=O)O)C(=O)O)cc3)c2c(=O)[nH]1 [Pemetrexed],inactive: 0.0353
7,"COc1ccc(C(=O)c2ccccc2O)c(O)c1 [2,2_-Dihydroxy-4-methoxybenzophenone]",inactive: 0.233
8,COc1ccc(CN2CCN(C(c3ccc(F)cc3)c3ccc(F)cc3)CC2)c(OC)c1OC [Lomerizine HCl],active: -2
9,CC(C)Cc1ccc(C(C)C(=O)O)cc1 (centres undefined) [Ibuprofen Lysine],inactive: 1.33
10,CC(C)Cc1ccc(C(C)C(=O)O)cc1 (centres undefined) [Ibuprofen],inactive: -0.716
11,Cc1cc(N2CCN([C@@H]3CN[C@H](C(=O)N4CCSC4)C3)CC2)n(-c2ccccc2)n1 [Teneligliptin hydrobromide],inactive: -0.257
12,CC[C@@H]([C@H](C)O)n1ncn(-c2ccc(N3CCN(c4ccc(OC[C@@H]5CO[C@@](Cn6cncn6)(c6ccc(F)cc6F)C5)cc4)CC3)cc2)c1=O [Posaconazole],inactive: 0.642
13,O=C(O)c1ccccc1 [Benzoic Acid],inactive: 0.766
14,CCCCC[C@H](O)/C=C/[C@H]1[C@H](O)CC(=O)[C@@H]1CCCCCCC(=O)O [Alprostadil],inactive: -0.159
15,NC1=N[C@@](c2cccc(-c3cncnc3)c2)(c2ccnc(C(F)F)c2)c2cccc(F)c21,inactive: 0.631
16,COC(=O)[C@]12CCC(C)(C)C[C@H]1[C@H]1C(=O)C=C3[C@@]4(C)C=C(C#N)C(=O)C(C)(C)[C@@H]4CC[C@@]3(C)[C@]1(C)CC2 [Bardoxolone Methyl],active: -6.06
17,CN1CCN(c2nc(C3=C(c4c[nH]c5ccccc45)C(=O)NC3=O)c3ccccc3n2)CC1 [Sotrastaurin],inactive: -0.332
18,COc1cc2ncnc(Nc3ccc(F)c(Cl)c3)c2cc1OCCCN1CCOCC1 [Gefitinib (ZD1839)],inactive: -0.0624
19,NCCCCC(NC(=O)C1CCCN1C(=O)C1CSSCC(N)C(=O)NC(Cc2ccc(O)cc2)C(=O)NC(Cc2ccccc2)C(=O)NC(CCC(N)=O)C(=O)NC(CC(N)=O)C(=O)N1)C(=O)NCC(N)=O (centres undefined) [Lypressin Acetate],inactive: 1.87
20,CC(C(=O)O)c1ccc(C(=O)c2cccs2)cc1 (centres undefined) [Suprofen],inactive: 1.17
21,O=C(c1ccc(OCCCc2c[nH]cn2)cc1)C1CC1 [Ciproxifan],inactive: 6.24
22,CC(C)[C@H](N)C(=O)OCC(CO)OCn1cnc2c(=O)[nH]c(N)nc21 (some centres undefined) [Valganciclovir HCl],inactive: -0.0767

# — the supplement of paper PMC11348887
